# Laboratory results published in PubChem BioAssay AID1347165 (National Center for Advancing Translational Sciences (NCATS), 2019).
# Where “and” joins values, the source holds several entries; their conditions need not be identical. Equal values may be shown once. Among all 220,000 compounds or so, about 5,700 (2.6%) were called active. Inconclusive means that the source gave no clear call. Such entries were picked first, then a sample of the others. The call rests on the fitted dose curve; in most records, active means well fitted inhibition curve with a large enough effect; inconclusive means small, poorly fitted or top-dose-only effect; inactive means no such curve, though single readings can be large or run the other way. Where the call is inconclusive, the potency comes from a doubtful curve fit.
# Biological target: Lysine-specific demethylase 5B (Homo sapiens) (UniProt Q9UGL1)
# UniProt Q9UGL1, sequence (Q9UGL1 whole entry, looked up): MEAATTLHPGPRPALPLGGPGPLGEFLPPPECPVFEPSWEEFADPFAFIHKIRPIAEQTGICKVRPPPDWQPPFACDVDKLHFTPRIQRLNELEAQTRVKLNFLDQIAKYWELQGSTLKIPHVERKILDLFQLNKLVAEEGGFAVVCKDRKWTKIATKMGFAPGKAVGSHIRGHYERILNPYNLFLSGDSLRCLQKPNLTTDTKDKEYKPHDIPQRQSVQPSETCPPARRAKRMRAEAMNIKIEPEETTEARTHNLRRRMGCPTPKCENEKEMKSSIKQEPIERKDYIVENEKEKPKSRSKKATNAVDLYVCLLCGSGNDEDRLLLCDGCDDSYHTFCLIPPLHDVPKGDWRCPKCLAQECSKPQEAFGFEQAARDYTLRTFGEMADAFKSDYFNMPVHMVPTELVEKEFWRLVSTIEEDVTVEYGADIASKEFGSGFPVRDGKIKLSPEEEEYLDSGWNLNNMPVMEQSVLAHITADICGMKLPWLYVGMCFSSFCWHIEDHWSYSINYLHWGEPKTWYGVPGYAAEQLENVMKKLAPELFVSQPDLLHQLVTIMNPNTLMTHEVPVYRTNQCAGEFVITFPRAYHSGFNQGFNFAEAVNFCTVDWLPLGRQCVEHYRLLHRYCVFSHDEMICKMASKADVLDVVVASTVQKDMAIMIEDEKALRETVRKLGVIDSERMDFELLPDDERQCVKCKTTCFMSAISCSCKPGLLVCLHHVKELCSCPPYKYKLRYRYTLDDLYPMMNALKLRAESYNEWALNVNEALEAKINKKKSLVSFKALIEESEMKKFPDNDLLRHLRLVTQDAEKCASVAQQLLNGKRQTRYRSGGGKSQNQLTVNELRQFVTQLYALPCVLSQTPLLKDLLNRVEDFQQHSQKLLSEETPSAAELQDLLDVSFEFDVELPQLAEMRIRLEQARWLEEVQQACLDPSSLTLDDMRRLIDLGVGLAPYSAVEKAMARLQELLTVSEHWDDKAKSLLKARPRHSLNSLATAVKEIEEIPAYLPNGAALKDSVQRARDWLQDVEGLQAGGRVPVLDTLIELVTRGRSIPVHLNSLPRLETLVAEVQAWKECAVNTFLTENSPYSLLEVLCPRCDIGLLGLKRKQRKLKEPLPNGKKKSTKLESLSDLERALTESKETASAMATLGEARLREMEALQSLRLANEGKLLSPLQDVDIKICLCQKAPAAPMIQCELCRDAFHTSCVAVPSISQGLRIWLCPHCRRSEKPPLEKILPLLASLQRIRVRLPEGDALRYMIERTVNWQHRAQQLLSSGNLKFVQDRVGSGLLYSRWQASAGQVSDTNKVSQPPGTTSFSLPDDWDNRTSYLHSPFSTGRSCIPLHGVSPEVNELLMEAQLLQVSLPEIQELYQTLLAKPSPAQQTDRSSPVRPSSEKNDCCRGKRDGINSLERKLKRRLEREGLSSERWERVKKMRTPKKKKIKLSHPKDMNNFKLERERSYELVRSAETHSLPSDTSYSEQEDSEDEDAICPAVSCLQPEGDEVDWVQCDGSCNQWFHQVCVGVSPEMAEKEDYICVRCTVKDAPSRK
# Assay: Primary screen for KDM5B Histone Demethylases FDH-coupled qHTS; further: nearly all actives have a fitted effect of over 70% in size; on activity change, negative = inhibition: 0% is about no effect
# Conditions: FDH-coupled NADH fluorescence (FDH is formaldehyde dehydrogenase); activity change, negative = inhibition: at 57.7 µM (top of the series) unless noted
# How it was run: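 Measured: NADH fluorescence change, 30 min, RT. System: KDM5BΔAP 200 nM final, H3K4me3 peptide, α-KG, Fe(II), ascorbate, NAD⁺ plus FDH, pH 7.5 HEPES. Compounds: titrated, 10 min pre-incubation with enzyme.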
# Potency means the concentration at half of the fitted maximal effect; tags describe the fitted curve by direction and shape.
Structure (SMILES),Potency,"activity change, negative = inhibition"
CN(C)c1ccc(C(=O)N2CCN(c3cc(-c4ccc(Cl)cc4)[nH]n3)CC2)cc1,"inconclusive: 31.6 µM [inhibitor, single point]",
Cc1ccc2nc(N3CCN(C=O)CC3)nc(-c3ccccc3)c2c1,"inconclusive: 39.8 µM [inhibitor, single point]",
CCCn1cc(S(=O)(=O)c2ccc(C)c(C)c2)c(=O)c2cc(F)c(N3CCC(C)CC3)cc21,"inconclusive: 28.2 µM [inhibitor, single point]",
CNC(=O)[C@@H](C1CCCCC1)N1CCC[C@H]1C(=O)N1CCN(C)CC1,"inconclusive: 20 µM [inhibitor, partial curve, poor fit]",
CCc1[nH]c2c(CNC(=O)c3cnc(C)nc3)cc(C)cc2c1C,"inconclusive: 20 µM [inhibitor, partial curve, poor fit]",
CC1(C)[C@H](Cc2cc(COc3ccccc3)on2)C[C@@H]1NC(=O)c1cccs1,,inactive: -31.1% [at 86.2 µM]
CN(Cc1ccc(C(N)=O)cc1)C(=O)c1cc(=O)[nH]c2ccccc12,"inconclusive: 20 µM [inhibitor, partial curve, poor fit]",
COc1ccc(C(C)(C)C)cc1NC(=O)CCN1C(=O)C2CCCCC2C1=O (stereo not drawn),"inconclusive: 31.6 µM [inhibitor, single point]",
COc1cc2cc(C(=O)N[C@@H](C)C(=O)Nc3ccc4c(c3)OCO4)n(C)c2c(OC)c1OC,"inconclusive: 22.4 µM [inhibitor, single point]",
O=S(=O)(N[C@@H]1C[C@H](Cn2cc(-c3cccnc3)nn2)[C@@H](O)[C@H]1O)c1ccccc1,"inconclusive: 31.6 µM [inhibitor, partial curve, poor fit]",
CC(c1ccc(Cl)cc1Cl)N(C)Cc1nc2ccccc2o1 (stereo not drawn),,inactive: -19.2%
N#Cc1ccc(OCC(=O)Nc2ccncc2)cc1,"inconclusive: 31.6 µM [inhibitor, single point]",
Cc1ccc(-n2nc(-c3c(C)nc4scc(CC(=O)NCc5ccco5)n4c3=O)cc2C)cc1,"inconclusive: 28.2 µM [inhibitor, partial curve, poor fit]",
COc1ccccc1Oc1coc2cc(OC(=O)c3ccccc3F)ccc2c1=O,"inconclusive: 17.8 µM [inhibitor, partial curve, poor fit]",
Cc1ccc2nc(-c3ccc(F)cc3)c(NC(C)(C)CC(C)(C)C)n2c1,"inconclusive: 2.51 µM [inhibitor, partial curve, poor fit]",
Cc1cc(C)c2c(C(=O)O)cc(-c3cccnc3)nc2c1,"inconclusive: 14.1 µM [inhibitor, partial curve, poor fit]",
COC(=O)[C@@H]1Cc2ncn(Cc3ccc(Cl)cc3)c2CN1S(=O)(=O)c1cccc2c(N(C)C)cccc12,"inconclusive: 25.1 µM [inhibitor, partial curve, poor fit]",
Cc1occc1-c1nc2ncccc2[nH]1,active: 126 µM and active: 31.6 µM,
CC(C)Nc1ccc2nnc(C3CCC3)n2n1,"inconclusive: 25.1 µM [inhibitor, partial curve, poor fit]",
CC(=O)N1CCN(C(C(=O)O)c2c[nH]c3ccc(Br)cc23)CC1 (stereo not drawn),,inactive: -4.69%
CN1CCN(CCNC(=O)c2ccc(-c3ccc(N4CCCCCC4)nc3)cc2)CC1,active: 22.4 µM,

Structure (SMILES),Potency,"activity change, negative = inhibition"
COc1ccc(N2CCN(C(=O)C3Cc4ccccc4N3C(C)=O)CC2)cc1 (stereo not drawn),"inconclusive: 1.12 µM [inhibitor, partial curve, poor fit]",
COC(=O)c1ccc(COC(=O)CCc2nc3ccccc3[nH]c2=O)cc1,,inactive: 5.62%
CC(=O)Nc1ccc2c(C(C(=O)O)N3CCN(c4nc5c(cc4C#N)CCCC5)CC3)c[nH]c2c1 (stereo not drawn),"inconclusive: 28.2 µM [inhibitor, single point]",
Cc1cc(C)cc(N2CCn3c2nc2c3c(=O)n(C/C=C/c3ccccc3)c(=O)n2C)c1,"inconclusive: 25.1 µM [inhibitor, partial curve, poor fit]",
COc1cccc(CC(=O)Nc2ccc(-c3nc4ccccc4s3)cc2Cl)c1,"inconclusive: 6.31 µM [inhibitor, partial curve, poor fit]",
CCOc1cc(CNC(=O)C2CCN(c3nc4ccccc4[nH]3)CC2)cc(OCC)c1OCC,"inconclusive: 17.8 µM [inhibitor, partial curve, poor fit]",
CN1CCN(Cc2c(O)ccc3cc(-c4ccc(Cl)cc4)c(=O)oc23)CC1,"inconclusive: 25.1 µM [inhibitor, partial curve, poor fit]",
C1CCC(CN2CCn3c(nnc3C3CCCNC3)C2)CC1 (stereo not drawn),active: 25.1 µM,
O=C(NCc1ccc(F)cc1)c1cc(-c2ccncc2)nc2ccccc12,,inactive: -7.97%
CC(=O)c1ccc(N2CCN(C(=O)c3ccc(Cn4cncn4)cc3)CC2)cc1,,inactive: 6.78%
COc1cncc(Nc2ncc(-c3c(C)noc3C)c3c2OCC3)c1,"inconclusive: 25.1 µM [inhibitor, single point]",
CCN(CC)c1ccc(NC(=O)CCn2ccn3nc4c(c3c2=O)CCCC4)c(C)c1,"inconclusive: 20 µM [inhibitor, partial curve, poor fit]",
COC(=O)C1=C(C)N=C2SC=C(CC(=O)N3CCCC3)N2C1c1cccc(OC)c1 (stereo not drawn),"inconclusive: 15.8 µM [inhibitor, partial curve]",
CCOC(=O)c1ccc(NC(=O)N2Cc3[nH]cnc3C[C@H]2c2nc(-c3ccc(Cl)cc3)no2)cc1,"inconclusive: 25.1 µM [inhibitor, partial curve, poor fit]",
O=C(NCc1nnc2n1C(C(=O)N1CCN(c3ncccn3)CC1)CC2)c1ccc(Cl)cc1Cl (stereo not drawn),"inconclusive: 79.4 µM [inhibitor, single point]",
C=C(Br)CN1CCN(C(=O)CN2CCCC2)CC1,,inactive: 10.2%
COCc1nn(CC(=O)N2CCc3sccc3C2)c(=O)n1-c1ccccc1,,inactive: -0.828%
CC(=O)N1CCc2nn(CC(=O)N3CCN(c4ccccc4)CC3)c(=O)cc2C1,"inconclusive: 31.6 µM [inhibitor, single point]",
COc1ccccc1C(=O)NCC1COc2ncncc2C(=O)N1Cc1ccccc1 (stereo not drawn),"inconclusive: 25.1 µM [inhibitor, partial curve, poor fit]",
CCc1nnc(NC(=O)Cc2coc3ccc(C(C)C)cc23)s1,,inactive: -4.54%
CN(Cc1ccccc1)C1CCN(Cc2ccc(F)cc2)CC1,"inconclusive: 31.6 µM [inhibitor, partial curve, poor fit]",

Structure (SMILES),Potency,"activity change, negative = inhibition"
O=C1NCCCC1C(=O)N/N=C/c1cccc(Cl)c1 (stereo not drawn),"inconclusive: 22.4 µM [inhibitor, partial curve, poor fit]",
COC(=O)c1sc2c(c1C)c(=O)n(-c1ccccc1)c(=O)n2CC(=O)Nc1cccc(C)c1,"inconclusive: 39.8 µM [inhibitor, single point]",
O=C(Nc1cccc(C(F)(F)F)c1)C1CCCN1c1ncnc2ccccc12 (stereo not drawn),,inactive: -22.7%
c1ccc(-c2ccc(-c3ccn[nH]3)cc2)cc1,"inconclusive: 39.8 µM [inhibitor, partial curve, poor fit]",
CCc1ccccc1NS(=O)(=O)c1ccc2c(c1)CCCN2C(=O)C1CCC1,,inconclusive: -30.2% [inhibitor]
CCOc1cc(C)c(Cl)cc1S(=O)(=O)N1CCCCC1C (stereo not drawn),,inactive: -1.68%
Cc1cn2nc(C(=O)N3CCOCC3)cc2c(N(C)Cc2ccccc2)n1,"inconclusive: 25.1 µM [inhibitor, partial curve, poor fit]",
CCCCNC(=O)CCC(=O)Nc1ccc2nc(N3CCCCC3)cc(C)c2c1,"inconclusive: 28.2 µM [inhibitor, partial curve, poor fit]",
COc1ccc(OC2CCN(C(C)=O)CC2)c(C(=O)N(C)CC2CCCCO2)c1 (stereo not drawn),,inactive: -14%
Cc1ccc(C(=O)N2CCn3c4c(c5cc(C)ccc53)CCCC42)cc1 (stereo not drawn),"inconclusive: 31.6 µM [inhibitor, single point]",
COc1ccc(-c2noc(-c3cccn3CC(=O)Nc3ccc(F)cc3)n2)cc1F,,inactive: 2.17%
COc1ccc(OC)c([S+](=O)([O-])c2nnn3c2nc(NC2CCCC2)c2ccccc23)c1,"inconclusive: 79.4 µM [inhibitor, partial curve]",
CC1=C[C@@H](CN2CCOCC2)[C@H](C(C)C)C[C@H]1Cc1nnc(-c2ccccc2F)o1,,inactive: -5.9% [at 86.2 µM]
COc1ccc(OC)c(-c2noc(N3CCN(c4ccc(Cl)cc4)CC3)n2)c1,"inconclusive: 39.8 µM [inhibitor, partial curve, poor fit]",
O=C1CCN(C(=O)c2ccccc2)CCCC(C(=O)NCCCc2ccccc2)CCN1 (stereo not drawn),"inconclusive: 39.8 µM [inhibitor, single point]",
COc1ccccc1-c1nnc([C@H]2CCN(Cc3cccnc3)C2)o1,"inconclusive: 35.5 µM [inhibitor, partial curve, poor fit]",
Cc1ccc(-c2ccc3nnc(CNC(=O)c4nccc5ccccc45)n3n2)cc1,active: 31.6 µM,
Cc1ccc(NC(=O)c2oc3c(c2C)-c2[nH]ncc2CC3)c(Cl)c1,"inconclusive: 28.2 µM [inhibitor, partial curve, poor fit]",
Cc1ccc(C(=O)N2CCCN(c3nc4ncccc4o3)CC2)cc1,"inconclusive: 28.2 µM [inhibitor, partial curve, poor fit]",
COc1ccccc1C1=NS(=O)(=O)N(C)C(C(=O)N2CCN(C)CC2)=C1,,inactive: 10.3%
CC1=C[C@@H](CNCc2ccncc2)[C@H](C(C)C)C[C@H]1Cc1nnc(-c2ccc(N(C)C)cc2)o1,"inconclusive: 25.1 µM [inhibitor, single point]",
